# Test results taken from the supplement of paper PMC11417369.
# ± gives the standard deviation of the averaged measurements. The list shows a part of the results.
# Tested on: PfAP2-G AP2 domain (GST-tagged)
# Assay: gcPBM binding intensity (ln(normalized median fluorescence intensity)); higher = stronger DNA binding
# Procedure, shortened: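 GST-tagged P. falciparum DNA-binding domains produced in E. coli were incubated for 1 h on an Agilent 4 × 180k array of primer-extended double-stranded 36-bp intergenic genomic probes with negative controls. Binding intensity is the highest Masliner-normalised natural-log median intensity across replicate spots of either probe orientation, with bound protein detected by Alexa488 anti-GST antibody at 488 nm.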
row,Sequence,gcPBM binding intensity (ln)
1,GAAAAAAAAAAAAGGGGTACATTTATTTTATCAATA [XGTACX_site8331],11.5 ± 1
2,TTTTTTTTTTTTTTTTTTTTTTTCTTTATTTTTTTT [CACACA_negctrl_site703],9.59 ± 0.25
3,CACATACACATACAAACACACATTATATATATATAT [CACACA_site8460],10.3 ± 0.47
4,CATCCATTATTAATATGTACATATGTATATATATTA [XGTACX_site1318],11.2 ± 0.74
5,AAAATTAATAAATAAACACACATATTTATATTTATA [CACACA_site7266],9.495 ± 0.092
6,TATAAATATAGACACACACACACACCGAAGCGTAGC [CACACA_site6180],10.2 ± 0.25
7,TCGTCACTTTAATATTGTACATATATATATATATAT [XGTACX_site8046],11.1 ± 0.65
8,ATATATATATGTGCCAGTACACATGTATACATTATA [XGTACX_site3899],11.2 ± 0.57
9,GATATATATATTCACACACACATGGAAATATATATA [CACACA_site382],9.88 ± 0.028
10,AATATTTTGAACAACAGTACTCTTTCTTTCTTTCTT [XGTACX_site7212],10.9 ± 0.54
11,TCCTTTTCATCTTGTAGTACGGAAATGTAGCTCCAA [XGTACX_site8563],11.1 ± 0.61
12,TATATGTATTTATATACACACATATTCTTTTTACAC [CACACA_site8320],10.2 ± 0.3
13,TATATCTACTTAAAAAGTACGTAAATTATAAGCTAT [XGTACX_site6420],11.1 ± 0.74
14,TGTGTAAATATGTATACACACATATCTGATCAATAT [CACACA_site7507],10.1 ± 0.14
15,TATGTATAACTCAATGCATGCGAAGGACTATTATTT [TGCATGCA_site222],10.2 ± 0.23
16,AATATTGTTCACAAGGTGCTTTTTATTCATACTAAT,10.01 ± 0.028
17,GATTAAAACTTTAACTGTACATAATAATTATCAATC [XGTACX_site5938],11 ± 0.61
18,TTTAAAATTTCTTAATGTACGTAATAAAAAAAAAAA [XGTACX_site4037],11.4 ± 1.2
19,ACCTCACAAATGAATACACACAAACATATAGATTTA [CACACA_site6862],10.1 ± 0.25
20,ATATATAAAATTATATGTACATATATCTATTTATAA [XGTACX_site3713],11.2 ± 0.68
21,TTTTCCTTTTTTTTTACATGCAGATATAGAAAGGTA [TGCATGCA_site106],10.1 ± 0.43
22,TTGTTTTGGATTATCACACATATAATATATACTCAT [CACACA_site4780],10.06 ± 0.035
23,AAATACATAACTTAAAATTTGTTCATATCTATACAT [TGCATGCA_negctrl_site249],9.88 ± 0.18

row,Sequence,gcPBM binding intensity (ln)
1,TATAATAATATGGATTGTACATATATATTTAATTAA [XGTACX_site4327],10.8 ± 0.55
2,AATTAAATATTATAAACACACATATAGATTATTTTT [CACACA_site6538],9.91 ± 0.13
3,ATTTTAAATATGGAATGTACTTAAAAAAAATTTCAT [XGTACX_site5058],11.1 ± 0.81
4,ATTTCTTATTAAATTACACACAAAGTAAATAAATCT [CACACA_site3924],9.965 ± 0.064
5,GTAATTTTTTTCTATACACACATATCTATAATATAT [CACACA_site7284],10.2 ± 0.13
6,TACTTATAATTTCAATGTACATATATATAATATCAT [XGTACX_site2424],11 ± 0.61
7,ACAATAAAATATGGCACACATATATATATATATTTA [CACACA_site3],10.2 ± 0.2
8,ATTTATTTTAGTAAAGCACACGTGTAAAATATATCT [CACACA_site4820],10.4 ± 0.2
9,AACACCCATGGACACACACACATATATATATATATA [CACACA_site5809],10.8 ± 0.6
10,TTTTTATAAGCATAAAGTACAAATATTTTTTAGTTG [XGTACX_site4140],11 ± 0.59
11,TAAATCCGTTTGATGGGTACATACATACATACATAT [XGTACX_site8889],11.2 ± 0.79
12,AAAAAAAAAAAAAAAAAATACATATACATTTGTGCA [CACACA_negctrl_site1431],10.5 ± 0.26
13,TTTTTATTTATATATAAGGAAAATGCGGTATATATT [CACACA_negctrl_site1770],10.2 ± 0.16
14,TCTTTTTTGAACTAGCGTACATGAAAATATTTATAG [XGTACX_site7359],11.4 ± 1
15,TTATTACATATAAAGGAAAATAGCATCTAGATTAAA [XGTACX_negctrl_site435],9.82 ± 0.014
16,CATATTTCTTACATTTGTACTTAATAAAATTAATCA [XGTACX_site7224],11 ± 0.63
17,AAAAAAATTTATAAATATTTTATTAATATATTTACC [GTGCAC_negctrl_site690],9.51 ± 0.2
18,CATATATAAAAAAACACACACATATTTATATTTATA [CACACA_site6682],9.895 ± 0.064
19,ACACAAAACAAAAAGGTGCTGTATAAATGGGTGTAT [GTGCAC_site9905],10.1 ± 0.085
20,TTTTTATACAACTTATAATACATCTGAAAATATAAA [XGTACX_negctrl_site36],9.93 ± 0.11
21,TTGTCTGACTAATTTTTTTCTGTTTGTACGTTCTTA [GTGCAC_negctrl_site602],11.2 ± 1
22,TATCACATATTATGATGTACAAGGTTTCTGACTAAT [XGTACX_site2763],10.9 ± 0.55
23,ATAATTATACATATTACACACTCTCTTGATCTTTTT [CACACA_site3853],9.87 ± 0.11

row,Sequence,gcPBM binding intensity (ln)
1,ACAAAATAAATATGAACACACACATTTATGCCTTTA [CACACA_site8346],9.84 ± 0.16
2,AAACATTTAAATGGAAACACAGAAAAATGAAAAATG [CACACA_negctrl_site457],10.4 ± 0.2
3,TTTTTTTTTTGTAATACACACCACTATATGTTATTT [CACACA_site5087],9.985 ± 0.007
4,ATATATATATATACATGTACATATATACATTATATT [XGTACX_site936],11 ± 0.57
5,TATATATATATATATTGTACTTTATTTTATATATTC [XGTACX_site5697],11.2 ± 0.71
6,ATTTATAATGAGTATACACACATATATAGATTTGCT [CACACA_site4517],9.955 ± 0.035
7,ATTATTATTGTCAAATGTACAAGCTAATAATTTTTA [XGTACX_site7167],10.6 ± 0.33
8,ATGTTATATTTTTTTATACACACTGGAATATATAAA [CACACA_site215],10.1 ± 0.16
9,TAAAAAATAAAATACACACACATATTTATATTTATA [CACACA_site6737],9.78 ± 0.042
10,AAAAAAAAAAAAAACATACACACAAGAACAAAATAT [CACACA_site3003],10.07 ± 0.071
11,CAACAACATTTTTCATGTACATATATTTTATAATAT [XGTACX_site519],11.3 ± 0.8
12,TATTTTATCATTTGCACACGCACACCCACATAAAAA [CACACA_site354],10.7 ± 0.6
13,TATATTAAAACAAGCACACAATCGCATAATATCCTT [CACACA_site3210],9.895 ± 0.049
14,AGTATTATATTTTCTTGTACACATGTAAAATACCTC [XGTACX_site1359],11.4 ± 0.88
15,TTTTTTCTTTTCAAGGTGCTTTATAAGAAAAAGGGA [GTGCAC_site9858],10.1 ± 0.38
16,AAAAAAAAAAAAAACACACACACACCCAAATACATA [CACACA_site708],10.3 ± 0.15
17,CAATTACGCAGGAATGCACACAATAATAAAAAAAAT [CACACA_site3513],10.07 ± 0.085
18,AAAAAAAAAAAAAAAACACACATATATGTATATATA [CACACA_site3276],10 ± 0.27
19,ATATATATATATATATGTACATATTTTTTATTTTAT [XGTACX_site5761],11.2 ± 0.73
20,TTTCAAAAAGGAAGAAAAAAAAAAAAAAAAAATATA [XGTACX_negctrl_site514],9.46 ± 0.15
21,TCCCCCTTTTTTTGATTTTTATCTTAATTCTAAAAG [GTGCAC_negctrl_site541],10.4 ± 0.35
22,TATTATTCAAATAAAAGAAAAATATATATATTATAT [GTGCAC_negctrl_site273],9.51 ± 0.34
23,ATATGTTACTTTACATAAAGAAGAAGAAGAAGAAAA [CACACA_negctrl_site985],9.805 ± 0.064

row,Sequence,gcPBM binding intensity (ln)
1,AAGCTTCATTAATATACACACATATATGTGTATATT [CACACA_site7693],9.87 ± 0.12
2,AAGGTATGATTAATCACACACATAAATATAAATACA [CACACA_site5464],9.845 ± 0.092
3,AATAAAGAAGAAGAAAGTACACATTTCACAAAGGGG [XGTACX_site1308],11.5 ± 0.9
4,GATATATGTATAATAACGCACACTACAAAAATAAAA [CACACA_site2100],10.3 ± 0.33
5,ATAAAATATAGGTATGCACACACATATACTTCTGTG [CACACA_site8398],10.315 ± 0.007
6,TATATAATACGAATTTGTACATATTAAATAAATTAT [XGTACX_site93],10.8 ± 0.61
7,GTTAGTTTTAGTTCATGTACATAATAGAAAATATAT [XGTACX_site7125],11.4 ± 0.91
8,CTCATATATAACACATGTACACAGATTTTGCAAATG [XGTACX_site6879],11.4 ± 0.88
9,TTTTTTTTTTTTTTTTTACACACTGCATACAAGAAA [CACACA_site3026],10 ± 0.5
10,GTCTGCATATGGATACGTACACATATATATTAATGT [XGTACX_site2260],11.7 ± 0.91
11,GGGAAAAAATGAGGTCGTACATTTTTCATCACAAAT [XGTACX_site8920],11.4 ± 0.86
12,AAACTATACCAAAACACACATACAAAATATAAAAAA [CACACA_site2707],10.1 ± 0.16
13,ATTTTCAAATTATCAGATGAATCTTTTTAAGATCTT [XGTACX_negctrl_site598],9.45 ± 0.26
14,AATGAATGTACATACGCATGTACTTGACTAAATTAT [TGCATGCA_site436],11.4 ± 0.86
15,CAAGAAACAGTGATACGTACACATATATATATATAT [XGTACX_site3229],11.6 ± 0.79
16,TTCAAATAAATAGTAGTGCATATTTATTAATGTAAA,10.1 ± 0.13
17,ATTAAAGAGAGACATCAACACACATACGTATGTATA [CACACA_site8393],9.89 ± 0.11
18,TGGTAATACCCATACACACACACATACCCATATATA [CACACA_site5509],10.3 ± 0.21
19,ATAAATAAAACAACAGTGCAATAAAATTAGTTGAGG,9.86 ± 0.26
20,TTTTTTATGAGGTGGTGTACTTTTTTTTTTTTCTTT [XGTACX_site8550],11.7 ± 0.97
